The source of these data is PubChem BioAssay AID1645887 (National Center for Advancing Translational Sciences (NCATS), 2021).

Values joined by “and” are separate entries in the source; they are usually repeats but may differ in a detail not shown here. Identical values can stand only once. Hit rate of the full screen: of about 16,000 compounds, about 40 (0.2%) were called active. Roughly 1% stayed inconclusive and do not appear here. Calls come from the whole dose curve; as a rule, active = well fitted activation curve with a large enough effect; inconclusive = small, poorly fitted or top-dose-only effect, or another doubt; inactive = no such curve, though single readings can be large or run the other way. This is one part of the list. Some compounds were tested as several samples or in several runs, with calls that do not always agree.
% is set by controls: 0 for no effect and ±100 for the full control effect.

Chain of UniProt Q8WZA2 (Q8WZA2 whole entry, looked up): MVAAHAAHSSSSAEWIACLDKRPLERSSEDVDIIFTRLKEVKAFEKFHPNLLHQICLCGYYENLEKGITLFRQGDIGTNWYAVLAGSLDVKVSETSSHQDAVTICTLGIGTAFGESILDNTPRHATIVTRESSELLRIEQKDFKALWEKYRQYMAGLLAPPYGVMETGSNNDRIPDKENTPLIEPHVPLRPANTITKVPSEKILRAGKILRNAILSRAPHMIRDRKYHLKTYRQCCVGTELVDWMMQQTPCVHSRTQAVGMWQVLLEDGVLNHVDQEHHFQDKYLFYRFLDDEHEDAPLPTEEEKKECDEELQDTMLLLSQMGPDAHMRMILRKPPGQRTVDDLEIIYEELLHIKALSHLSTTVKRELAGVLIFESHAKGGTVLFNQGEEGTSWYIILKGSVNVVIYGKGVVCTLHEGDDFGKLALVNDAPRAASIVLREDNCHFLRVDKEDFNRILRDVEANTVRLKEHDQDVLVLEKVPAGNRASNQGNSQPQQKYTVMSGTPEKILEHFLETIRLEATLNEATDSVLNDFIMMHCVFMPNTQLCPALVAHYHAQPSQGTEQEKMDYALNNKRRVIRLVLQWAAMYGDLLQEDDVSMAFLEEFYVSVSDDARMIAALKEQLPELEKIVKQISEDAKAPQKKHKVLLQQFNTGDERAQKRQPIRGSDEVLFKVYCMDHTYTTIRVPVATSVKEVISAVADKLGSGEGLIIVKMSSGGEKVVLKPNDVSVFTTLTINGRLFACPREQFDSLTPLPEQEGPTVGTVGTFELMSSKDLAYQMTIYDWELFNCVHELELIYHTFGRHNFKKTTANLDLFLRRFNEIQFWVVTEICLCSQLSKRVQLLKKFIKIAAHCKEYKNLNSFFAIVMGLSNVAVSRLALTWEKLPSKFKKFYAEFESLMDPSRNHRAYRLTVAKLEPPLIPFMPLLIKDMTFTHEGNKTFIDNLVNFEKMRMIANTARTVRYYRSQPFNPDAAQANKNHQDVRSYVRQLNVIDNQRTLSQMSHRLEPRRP

This assay has as its target Rap guanine nucleotide exchange factor 4 (Homo sapiens) (UniProt Q8WZA2). Description: Validation qHTS for agonist of cAMP-regulated guanine nucleotide exchange factor 4 (EPAC2).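 Note: exchange makes BODIPY-GDP fluorescence drop when released from Rap1B; series mostly up to about 150 µM.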 Particulars: EPAC2 Rap1B BODIPY-GDP exchange, fluorescence; activation: active compounds read high. An outline of the steps:
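Signal normalized against 6.5 mM cAMP as agonist control. Mix of EPAC2 (100 nM), RAP1B-BODIPY-GDP (250 nM) and GDP (50 uM) was read kinetically at 480/540 nm, every 5 min over 30 min, after 5 min room-temperature incubation with compound.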
Background: In qHTS, concentration-response curves come from the screen itself.
`CC(=O)OC1CC(OC(C)=O)[C@]2(C)C(CC(O)[C@]3(C)C2CC[C@@]2(C)C(c4ccoc4)OC(=O)C4O[C@]432)C1(C)C` (stereo partly drawn): the activation is inactive: -14.3%.

Consider `CC(C)=CCOc1cc2oc(=O)ccc2cc1O`, for which the activation is inactive: -11.5%. `Cc1cc(O)c(C)c2c1CC[C@H]1[C@H](C)C(=O)O[C@H]21`: the activation was inactive: -24.3%. Next, `CC1(C)C(=O)CC[C@@]2(C)C1CC(O)[C@@]1(C)C3=CC(=O)OC(c4ccoc4)[C@]3(C)CCC21` (stereo partly drawn): inactive: -0.469%; `O=C(O)CSCC(=O)NC1CCSC1=O` (stereo not drawn): inactive: 3.47%; `O=C1C(SCCO)=C(SCCO)C(=O)c2ccccc21`: inactive: 13.8% and inactive: 13.5%. Regarding `O=C(Nc1ccccc1)N1CCC2(CC1)CCN(S(=O)(=O)c1ccccc1)CC2`, the activation was inactive: 8.11%. The same measure for `COc1ccc(Oc2ncc3nc(-c4ccc(F)cc4)c(=O)n(Cc4cccs4)c3n2)cc1`: inactive: 2.57%. Take `CCCCCCCC/C=C\CCCCCCCC(=O)OCC(CO)OC(=O)CCCCCCC/C=C\CCCCCCCC` (stereo not drawn): the activation was inactive: -3.26%.

For the compound `CNC(=O)Oc1ccc2c(c1)[C@]1(C)CCN(C)[C@@H]1N2C`, the activation is inactive: -37.2% and inactive: 9.74%.

For the compound `O=C1c2cccc3c2[C@H](CCC3)CN1[C@@H]1CN2CCC1CC2`, the activation was inactive: 5.17%. The same measure for `COc1cccc(Nc2ncc3nc(-c4ccc(Cl)cc4)c(=O)n(CCC#N)c3n2)c1`: inactive: -56.1%; for `O=C(c1cc(C(F)(F)F)cc(C(F)(F)F)c1)N1CCC[C@@]2(CCN(c3ccncc3)C2)C1`: inactive: -8.96%; for `C[C@H]1C(O)[C@@]23CCC4C5(C=[N+](CCO)C[C@]4(C)CCC5)C2C[C@@H]1C3` (stereo partly drawn): inactive: -23.1%. The same measure for `COc1ccc(CNc2ccnc(-c3cccc(NS(C)(=O)=O)c3)n2)c(OC)c1`: inactive: -12.2%. As for `COC(=O)N1CCC2(CC1)CCN(c1ccccc1)CC2`, the activation is inactive: -23.9%.

For `CCCCCCN(CCCCCC)C(=O)Cc1c(-c2ccc(Cl)cc2)[nH]c2ccc(Cl)cc12`, the activation is inactive: -0.309% and inactive: -2.58%.

As to `NC(C(=O)O)c1cc(O)cc(O)c1` (stereo not drawn), the activation was inactive: 6.38%. Next, `Cc1ccc(SC[C@H](Cc2ccccc2)N2CC[C@@H](NC(=O)OCc3ccccc3)CCC2=O)cc1`: inactive: -33.6%; `NCC[C@H](O)C(=O)N[C@@H]1C[C@H](N)[C@@H](O[C@H]2O[C@H](CN)[C@@H](O)[C@H](O)[C@H]2O)[C@H](O)[C@H]1O[C@H]1O[C@H](CO)[C@@H](O)[C@H](N)[C@H]1O`: inactive: -15.2%. For `Cn1cc(-c2nc3cncnc3n(Cc3ccc(F)cc3)c2=O)c2ccccc21`, the activation is inactive: -11.4%. For `O=C1C[C@@H]2c3c(cccc3CN1Cc1ccc(Br)cc1)C[C@@H](O)[C@H]2O`, the activation was inactive: -9.08%.

With `CN(C)c1ccc(/C=C/c2ccnc3c(-c4ccccc4)cccc23)cc1`, the activation is inactive: 1.63%. `N#Cc1cccc(-c2ccc3ncnc(NCCN4CCOCC4)c3c2)c1`: the activation was inactive: -10.9%. The same measure for `CSc1ccccc1C(=O)NCc1nc(-c2cccc(NC(=O)c3ccoc3C)c2)oc1C`: inactive: 16%; for `CC(C)C1CCC(C(=O)N[C@H](Cc2ccccc2)C(=O)O)CC1` (stereo partly drawn): inactive: 4.95%. Next, `COc1ccc(CNc2ncncc2-c2ccccc2C(F)(F)F)c(OC)c1`: inactive: -8.59%. Next, `COc1ccc(-n2c(CCNC(=O)c3ccc(-c4cccc(F)c4)cc3)nnc2SC)cc1`: inactive: 9.68%. In the case of `CCCCN1C[C@H](Cc2ccccc2)[C@@H](CC(=O)NCc2ccc(OC)cc2)C1=O`, the activation is inactive: -37.7%. Next, `COc1cccc(Cn2c(=O)c(CCc3ccccc3)nc3cnc(N4CCN(C)CC4)nc32)c1`: inactive: 5.16%. For the compound `NC(=O)COCCN1CCN(C(c2ccccc2)c2ccc(Cl)cc2)CC1` (stereo not drawn), the activation is inactive: -10.9%.

With `OC[C@H]1O[C@@H](n2cnc3c(NC4CCCC4)nc(Cl)nc32)[C@H](O)[C@@H]1O`, the activation was inactive: -1.85%.

Take `COc1ccc(NC(=O)N2CCCC3(CCN(C(=O)c4ccncc4)CC3)C2)cc1`: the activation is inactive: -9.71%. The same measure for `CCCCC(=O)N(Cc1ccc(-c2ccccc2-c2nn[nH]n2)cc1)[C@@H](C(=O)O)C(C)C`: inactive: 6.92%. With `CC(C)C(=O)Nc1ccc([N+](=O)[O-])c(C(F)(F)F)c1`, the activation was inactive: -14.5% and inactive: -18.6% and inactive: -46.2%. Next, `C[C@H]1O[C@@H](O[C@H]2CC[C@@]3(C)[C@H](CC[C@@H]4[C@@H]3C[C@@H](O)[C@]3(C)[C@@H](C5=CC(=O)OC5)CC[C@]43O)C2)C[C@H](O)[C@@H]1O[C@H]1C[C@H](O)[C@H](O[C@H]2C[C@H](O)[C@H](O[C@@H]3O[C@H](CO)[C@@H](O)[C@H](O)[C@H]3O)[C@@H](C)O2)[C@@H](C)O1`: inactive: -10.5%; `Cc1c(C(=O)N2CCCC2)sc2ncnc(NCCCN3CCOCC3)c12`: inactive: 5.08%. Next, `COc1ccccc1-c1nc(N(C)C)c2ccccc2n1`: inactive: -20.4%; `CC1=CC(=O)C2=C(C)C[C@@H]3OC(=O)[C@@H](C)[C@H]3C=C12`: inactive: -13.3%; `COCC(=O)Nc1cc(C(=O)NC2CCCc3ccccc32)c2c(c1)nc(-c1ccncc1)n2C` (stereo not drawn): inactive: -13.7%. For the compound `O=S(=O)(N(Cc1ccccc1)[C@@H](CO)Cc1ccccc1)N(Cc1ccccc1)[C@@H](CO)Cc1ccccc1`, the activation was inactive: -18.6%. Regarding `OCC1CCCN(c2nc3cc4c(cc3cc2CNCc2cccs2)OCO4)C1` (stereo not drawn), the activation is inactive: -2.67%. Next, `COc1c2c(nc3ccccc13)OC(C(C)(O)CO)C2` (stereo not drawn): inactive: -16.3%. As to `COc1ccc2c(c1)CCc1cnc(-n3ncc(C(=O)N(C)CC4CCCN(C)C4)c3C)nc1-2` (stereo not drawn), the activation is inactive: 0.0605%.

Take `COc1cc2c(cc1OC)-c1c(OC)c(OC)cc3ccnc(c13)C2=O`: the activation was inactive: 3.55%. In the case of `CC[C@@]1([C@@H]2O[C@@H]([C@H]3O[C@@](O)(CO)[C@H](C)C[C@@H]3C)C[C@@H]2C)CC[C@H]([C@]2(C)CC[C@]3(C[C@H](O)[C@@H](C)[C@@H]([C@@H](C)[C@@H](OC)[C@H](C)C(=O)O)O3)O2)O1` (stereo in doubt), the activation was inactive: -12.6% and inactive: -19.1%. For the compound `CC(O)CCCCn1c(=O)c2c(ncn2C)n(C)c1=O` (stereo not drawn), the activation was inactive: -21.6%. As for `CC(=O)Oc1cc2c(s1)CCN(C(C(=O)C1CC1)c1ccccc1F)C2` (stereo not drawn), the activation is inactive: 4.55%.

As to `NCCCCCCCCCCNS(=O)(=O)c1cccc2c(Cl)cccc12`, the activation was inactive: 10.2%. Next, `CN(C)[C@@H]1C(=O)C(C(N)=O)=C(O)[C@@]2(O)C(=O)C3=C(O)c4c(O)ccc(Cl)c4[C@@H](O)[C@H]3C[C@@H]12`: inactive: -14.1% and inactive: 4.77%; `CCN1CCC(N[C@H]2C[C@@H](C(=O)NC)N(Cc3cccc4ccccc34)C2)CC1`: inactive: 1.72%.

In the case of `COC(=O)[C@@H](NC(=O)C1CCCN(c2nc(C)c3ccc(C)cc3n2)C1)C(C)C` (stereo partly drawn), the activation was inactive: -10.5%.

As to `COc1c(C=O)c(O)cc2c1C(=O)c1ccccc1C2=O`, the activation is inactive: -4.05% and inactive: 12.3%. Next, `CCOC(=O)/C=C/c1ccccc1S(=O)(=O)NC(C)(C)C`: inactive: -16.5%; `COc1cccc(Cn2c(=O)c(-c3ccc(Cl)cc3)nc3cnc(N4CCNCC4)nc32)c1`: inactive: 18.6%; `CCC1CN(CC(=O)NC(C)c2c(C)nn(C)c2C)Cc2cc(OC)ccc2O1` (stereo not drawn): inactive: -11%. The same measure for `C[C@@H](CSc1ccc(Br)cc1)CN1CC[C@H](C(C)(C)C)CCC1=O`: inactive: -6.78%; for `C#C[C@]1(O)CC[C@H]2[C@@H]3CCC4=CCCC[C@@H]4[C@H]3C(=C)C[C@@]21CC`: inactive: -6.57%; for `CC(=O)NCCNc1ncnc2ccc(-c3cccc(NS(C)(=O)=O)c3)cc12`: inactive: -8.1%. As for `Cc1cc(C(=O)Nc2cccc(-c3nc(CNC(=O)c4ccccc4C(F)(F)F)c(C)o3)c2)c(C)o1`, the activation is inactive: -15.1%.

For the compound `Cn1cccc1C(=O)N1CCC2(CC1)CN(C(=O)Nc1cccc(C#N)c1)C2`, the activation is inactive: -10.5%. The same measure for `Cn1cccc1C(=O)N1CCC[C@@]2(CCN(c3cccc(-c4ccccc4)c3)C2)C1`: inactive: -7.4%; for `CC(=O)Oc1ccc2c(c1)CCC1C2CC[C@]2(C)C(OC(C)=O)CCC12` (stereo partly drawn): inactive: -1.9%. `COc1cccc(Cn2c(=O)c(-c3cccc(C#N)c3)nc3cnc(N4CCOCC4)nc32)c1`: the activation is inactive: 1.25%. Consider `CC(=O)OCC[N+](C)(C)C`, for which the activation is inactive: -2.31% and inactive: 1.21% and inactive: -1.13%. For the compound `COc1cc2c(c(OC)c1OC)-c1c(cc3c(c1OC)OCO3)C[C@@H](C)[C@](C)(O)C2`, the activation was inactive: 1.81% and inactive: 4.23%.

Consider `CNc1nc(-c2ccc3c(c2)OCO3)nc2ccccc12`, for which the activation was inactive: -3.46%. The same measure for `CC1(C)CCC2=C(O1)c1ccccc1C(=O)C2=O`: inactive: 17.8%; for `N[C@@H](Cc1cc(-c2ccc(Cl)cc2Cl)cc(CP(=O)(O)O)c1O)C(=O)O`: inactive: -28.5%; for `Cc1ccc(C(=O)NCCc2nnc3n2CCN(Cc2cc(C)cc(C)c2)CC3)cc1`: inactive: -1.34%. Take `CON=C1C[C@]2(C[C@@H]3C[C@@H](C/C=C(\C)C[C@@H](C)/C=C/C=C4\CO[C@@H]5[C@H](O)C(C)=C[C@@H](C(=O)O3)[C@]45O)O2)O[C@H](/C(C)=C/C(C)C)[C@H]1C`: the activation is inactive: -57.2% and inactive: -64.5%. For `O=[N+]([O-])c1ccc(/C=N\O)o1`, the activation is inactive: -4.7%. As for `O=C(CO)[C@@H](O)[C@H](O)[C@@H](O)C(=O)O`, the activation was inactive: 11.8%.
